{"source": "PubChem BioAssay AID445", "about": "(National Center for Advancing Translational Sciences (NCATS), 2006)", "note": "The whole screen tested about 110,000 compounds, of which about 40 (0.04%) were called active. This list was built around the results that the source calls inconclusive (neither active nor inactive); the mix of calls is not that of the screen. Calls follow the shape of the dose curve; as a rule, active = well fitted curve in the direction sought with a large enough effect in the signal ratio (not every such curve was filed as active); inconclusive = small, poorly fitted or top-dose-only effect, or a change in a side signal; inactive = flat fitted curve, though single readings scatter; the % refers to the signal ratio. Where the call is inconclusive, the potency comes from a doubtful curve fit. Potency is read from the fitted curve at half-maximal effect.", "data": [{"test": "IkB Signaling;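 as to IkBa stabilization activation: 0% = basal untreated cells and 100% = reference inhibitor full response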", "settings": "ABC-DLBCL IkBa-CBG/CBR dual luciferase ratio (green luciferase fused to IkBa over red control in OCI-Ly3 lymphoma cells), 4 h; IkBa stabilization activation: at 57.1 µM (top of the series), scaled: untreated 0%, proteasome inhibitor 100% unless noted", "how_it_was_run": "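Luminescence ratio of IκBα-fused green versus native red beetle luciferase in OCI-Ly3 cells, 4 h post-doxycycline with compound; red signal alone, scaled from basal (0%) to zero light (-100%), flagged nonspecific or cytotoxic effects.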", "values": [{"smiles": "COCCn1c(=O)c(CCc2ccccc2)nc2cnc(OCc3ccccc3)nc21", "IkBa stabilization activation": "inactive: 2.67% [at 11.4 µM, scaled: untreated 0%, proteasome inhibitor 100%]"}, {"smiles": "CC(C)(C)[C@@]1(O)CCN2C[C@@H]3c4ccccc4CCc4cccc(c43)[C@@H]2C1", "IkBa stabilization activation": "inactive"}, {"smiles": "Cc1cc(C)c2c(=O)n(CC(=O)N3CCC(N4CCCCC4)CC3)sc2n1", "IkBa stabilization activation": "inconclusive: 13.4% [signal inhibitor]"}, {"smiles": "Cc1ccccc1NS(=O)(=O)c1ccc2[nH]cc(C(=O)NC(C)c3ccccc3)c(=O)c2c1", "note": "(stereo unspecified)", "IkBa stabilization activation": "inconclusive: -4.35% [signal inhibitor]"}, {"smiles": "COc1ccc(Cl)cc1NC(=O)CSc1ncnc2c1oc1ccccc12", "IkBa stabilization activation": "inactive: 0.957%"}, {"smiles": "O=C(Nc1ccc(-c2noc(CCc3ccccc3)n2)cc1)c1cccnc1", "IkBa stabilization activation": "inconclusive: 15.3% [signal inhibitor]"}, {"smiles": "Cc1ccc(C)c(CNC(=O)C2CCN(c3nc4ccccc4nc3C(F)(F)F)CC2)c1", "IkBa stabilization activation": "inactive: -0.942%"}, {"smiles": "COc1ccccc1CCNC(=O)C(=O)NCC(c1cccs1)S(=O)(=O)c1ccc(C)cc1", "note": "(stereo unspecified)", "IkBa stabilization activation": "inconclusive: 3.22% [signal inhibitor]"}, {"smiles": "CCc1ccc(CNC(=O)COc2cc(=O)n(CC)c3ccccc23)cc1", "IkBa stabilization activation": "inconclusive: -0.225% [signal inhibitor]"}, {"smiles": "CC(=O)N1CCCC1c1nc2ccccc2n1Cc1cccc(Cl)c1", "note": "(stereo unspecified)", "Potency": "inconclusive: 3.16 µM [signal inhibitor]"}, {"smiles": "CCC(=O)N1CCN(c2ccccc2NC(=O)COc2cc(C)ccc2C(C)C)CC1", "IkBa stabilization activation": "inconclusive: -0.445% [signal inhibitor]"}, {"smiles": "COc1cc(NC(=O)CC(c2ccc(C)cc2)N2Cc3ccccc3C2=O)cc(OC)c1", "note": "(stereo unspecified)", "IkBa stabilization activation": "inconclusive: 0.289% [signal inhibitor]"}, {"smiles": "Cc1ccc(-c2cc(-c3ccc4c(c3)OCO4)c(C#N)c(N)n2)o1", "IkBa stabilization activation": "inconclusive: 17.2%"}, {"smiles": "CCCN(C(=O)c1cn(C)c(=O)c2ccccc12)c1ccccc1C", "IkBa stabilization activation": "inconclusive: 0.0484% [signal inhibitor]"}, {"smiles": "O=c1[nH]c2ccccc2c2nc3ccccn3c12", "IkBa stabilization activation": "inactive: -4.17%"}, {"smiles": "O=C(CN1CCSc2ccccc21)NCc1ccccc1F", "IkBa stabilization activation": "inactive: 1.64%"}, {"smiles": "CCOc1ccccc1CN1CCc2nc(N3CCN(c4ccccc4F)CC3)ncc2C1", "IkBa stabilization activation": "inconclusive: 13.7% [signal inhibitor]"}, {"smiles": "N#CCCn1c(=O)cnc2cnc(N3CCOCC3)nc21", "IkBa stabilization activation": "inactive: -1.77% [at 11.4 µM, scaled: untreated 0%, proteasome inhibitor 100%]"}, {"smiles": "O=C(Nc1ccc(Cc2ccncc2)cc1)c1ccc(Br)o1", "IkBa stabilization activation": "inactive: 2.84%"}, {"smiles": "CCc1nc(SCCO)c2oc3ccccc3c2n1", "IkBa stabilization activation": "inactive: -3.95%"}, {"smiles": "Cc1nc2cc(NC(=O)NCc3ccco3)ccc2n1C", "IkBa stabilization activation": "inactive: 7.9%"}, {"smiles": "COc1cc(C)ccc1OCCSc1nc(-c2cccc(C)c2)nc2cc(=O)[nH]n12", "IkBa stabilization activation": "inconclusive: -3.23% [signal inhibitor]"}, {"smiles": "O=C(Cc1ccc(S(=O)(=O)N2CCCC2)s1)Nc1nc2c(s1)CCCC2", "IkBa stabilization activation": "inconclusive: 3.51% [signal inhibitor]"}, {"smiles": "O=C1c2ccccc2-c2onc3ccc(NCCCn4ccnc4)c1c23", "IkBa stabilization activation": "inactive: -1.96%"}, {"smiles": "Cc1c(C(=O)NCc2ccco2)oc2ccc(S(=O)(=O)N3CCC4(CC3)OCCO4)cc12", "IkBa stabilization activation": "inconclusive: 9.66% [signal inhibitor]"}, {"smiles": "COc1ccc(C(=O)CSc2nc3nc(C)cc(C)n3n2)cc1OC", "IkBa stabilization activation": "inactive: -2.47%"}, {"smiles": "Cc1cc(Nc2ccccc2C)nc(-n2nc(C)cc2C)n1", "IkBa stabilization activation": "inconclusive: -0.231% [signal inhibitor]"}, {"smiles": "Cc1n[nH]c(C)c1S(=O)(=O)N1CCCC(C(=O)Nc2ccc(Br)cc2)C1", "note": "(stereo unspecified)", "IkBa stabilization activation": "inconclusive: 5.68% [signal inhibitor]"}, {"smiles": "COc1ccc(CCNC(=O)c2cc(C)nc3c2c(C)nn3-c2ccc(C)cc2)cc1OC", "IkBa stabilization activation": "inconclusive: -1.55% [signal inhibitor]"}, {"smiles": "CCOc1ccc(CNC(=O)CCCn2c(=O)c3cccn3c3ccccc32)cc1", "IkBa stabilization activation": "inactive: -0.589%"}, {"smiles": "COc1ccc(CCNC(=O)C(=O)NCC(c2cccs2)S(=O)(=O)c2cccs2)cc1", "note": "(stereo unspecified)", "IkBa stabilization activation": "inconclusive: 1.02% [signal inhibitor]"}, {"smiles": "COc1ccc(C(=O)n2nc(-c3cccnc3)nc2NCc2ccccc2)cc1OC", "IkBa stabilization activation": "inconclusive: -2.13% [signal inhibitor]"}, {"smiles": "O=C(CN1CCN(S(=O)(=O)c2ccc(Cl)cc2)CC1)Nc1ccc2c(c1)OCO2", "IkBa stabilization activation": "inconclusive: 3.19% [signal inhibitor]"}, {"smiles": "COc1ccc2nc(SCC(O)c3cccc(Br)c3)[nH]c2c1", "note": "(stereo unspecified)", "IkBa stabilization activation": "inconclusive: -0.657% [signal inhibitor]"}, {"smiles": "COc1ccc(OC)c(CNC(=O)C2CCN(S(=O)(=O)N3CCCC3)CC2)c1", "IkBa stabilization activation": "inactive: -0.778%"}, {"smiles": "Cc1ccc(Sc2ccc(N3CCCC(C(=O)Nc4ccc(F)cc4)C3)nn2)cc1", "note": "(stereo unspecified)", "IkBa stabilization activation": "inconclusive: 3.92% [signal inhibitor]"}, {"smiles": "Clc1ccc2[nH]c3c(NCC4CCCO4)ncnc3c2c1", "note": "(stereo unspecified)", "IkBa stabilization activation": "inconclusive: -5.42% [signal inhibitor]"}, {"smiles": "Cc1nn(-c2ccc(N3CCCCC3)nn2)c(C)c1CCC(=O)NCc1ccccc1", "IkBa stabilization activation": "inconclusive: 1.68% [signal inhibitor]"}, {"smiles": "CCN(CC)C(=O)CSc1nc2cc3c(cc2c(=O)n1CCCC(=O)NCc1ccc2c(c1)OCO2)OCO3", "IkBa stabilization activation": "inactive: -2.8%"}, {"smiles": "O=C(Cn1nc(N2CCN(c3ccccc3)CC2)ccc1=O)NCc1ccccc1F", "IkBa stabilization activation": "inconclusive: 4.43% [signal inhibitor]"}, {"smiles": "CCOC(=O)c1c(NC(C)=O)sc2c1CCCNC2=O", "IkBa stabilization activation": "inactive: 0.106%"}, {"smiles": "Cc1cccc(C(=O)Nc2ccccc2OCc2cc(=O)n3ccccc3n2)c1", "IkBa stabilization activation": "inconclusive: -0.236% [signal inhibitor]"}, {"smiles": "Cc1ccc(-c2nnc(SCC(=O)NC(C)(C)C)nc2-c2ccc(C)cc2)cc1", "IkBa stabilization activation": "inconclusive: 2.25% [signal inhibitor]"}, {"smiles": "Cc1cc(Cc2c(C)c(C)c(Cc3cc(C)cc(C(C)(C)C)c3O)c(C)c2C)c(O)c(C(C)(C)C)c1", "IkBa stabilization activation": "inactive: 0.847% [at 11.4 µM, scaled: untreated 0%, proteasome inhibitor 100%]"}, {"smiles": "C=CCn1c(N)c(C(=O)OC(C)CC)c2nc3ccccc3nc21", "note": "(stereo unspecified)", "IkBa stabilization activation": "inactive: 0.158%"}, {"smiles": "CCOc1ccc(C(=O)N(Cc2nc(-c3cccc(C)c3)no2)C(C)C)cc1", "IkBa stabilization activation": "inconclusive: -1.48% [signal inhibitor]"}]}]}
